Data: PubChem BioAssay AID276 (DTP/NCI, 2004)
Toxic doses and inconclusive results are not listed. Some entries of the source have several records that differ or are many. The other results are left out here. An entry can have further records. Results that share an entry are repeats across runs, samples, wells, individuals or studies.

Tested on: B6C3F1 mice, Lewis lung carcinoma iv, survival T/C
Experiment: NCI In Vivo Anticancer Drug Screen. Data for tumor model Lewis Lung Carcinoma (intravenous) in B6C3F1 mice
Conditions: endpoint: median survival time, higher = longer survival
Procedure: The antitumor activity of compounds was measured in mice bearing transplantable tumors. Survival or tumor size were measured and the results are expressed as the measurement made in the treated group (T) divided by the measurement made in the vehicle treated control group (C). The tumor model used in this assay is Lewis Lung Carcinoma (intravenous) in B6C3F1 mice

C#C[C@]1(O)CC[C@H]2[C@@H]3CCc4cc(O)ccc4[C@H]3CC[C@@]21C
T/C (dose: 200.0 mg/kg/injection, schedule: Q01DX009 (ip), vehicle: Klucel (hydroxypropylcellulose) (HPC)): 105 % of control and 154 % of control

O=NN(CCCl)C(=O)NC1[C@H](O)CCC[C@@H]1O (stereo partly drawn)
T/C (dose: 2.5 mg/kg/injection, schedule: Q01DX009 (ip), vehicle: saline): 118 % of control and 156 % of control

CNC(=O)c1cccc2c(Nc3ccc(NS(C)(=O)=O)cc3OC)c3cccc(C)c3nc12
T/C (dose: 25.0 mg/kg/injection, schedule: Q04DX003 (ip), vehicle: saline + alcohol): 87 % of control and 294 % of control

O=P1(N(CCCl)CCCl)NCCCO1 (stereo not drawn)
T/C (dose: 200.0 mg/kg/injection, schedule: Q01DX001 (ip), vehicle: saline): 98 % of control, 190 % of control, 312 % of control

NC(=O)c1c[se]c(C2OC(CO)C(O)C2O)n1 (stereo not drawn)
T/C (dose: 50.0 mg/kg/injection, schedule: Q01DX009 (ip), vehicle: water): 94 % of control and 355 % of control

O=NN(CCCl)C(=O)NC1CCCCC1
T/C (dose: 4.0 mg/kg/injection, schedule: Q01DX009 (ip), vehicle: Klucel (hydroxypropylcellulose) (HPC)): 103 % of control, 155 % of control, 158 % of control | T/C (dose: 16.0 mg/kg/injection, schedule: Q01DX009 (ip), vehicle: Klucel (hydroxypropylcellulose) (HPC)): 102 % of control and 151 % of control

CC1=NNC(=O)C1CCO (stereo not drawn)
T/C (dose: 100.0 mg/kg/injection, schedule: Q01DX009 (ip), vehicle: Klucel (hydroxypropylcellulose) (HPC)): 89 % of control and 292 % of control
